Screen size: about 420,000 compounds; about 50,000 (12%) were called active. Inconclusive means that the source gave no clear call. Such entries were picked first, then a sample of the others. The call rests on the fitted dose curve; in most records, active means well fitted inhibition curve with a large enough effect; inconclusive means small, poorly fitted or top-dose-only effect; inactive means flat fitted curve, though single readings scatter. No potency is given beside an inconclusive call; the fits are too rough.
Assay: qHTS for Inhibitors of human tyrosyl-DNA phosphodiesterase 1 (TDP1): qHTS in cells in presence of CPT; further: nearly all actives have a fitted effect of over 55% in size
Conditions: chicken DT40 Tdp1-/-;hTDP1 cells + 20 nM CPT, ATP luminescence, 48 h; activity change, negative = growth inhibition: at 46.2 µM (top of the series) unless noted
In short: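 Chicken DT40 Tdp1-/- cells stably complemented with human TDP1 were seeded at 400 cells/well in medium containing 20 nM camptothecin, exposed to pin-transferred compounds, and grown at 37 °C for at least 48 hr. Viability was read as ATP luminescence.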
With O=C(CCN1C(=O)/C(=C/c2ccc(F)cc2)SC1=S)NNC(=O)c1ccncc1 the Potency was inconclusive [inhibitor, single point].
For COc1ccc(CNc2cc(NCCCO)c([N+](=O)[O-])c3nonc23)cc1, the Potency was active: 20.6 µM.
With CC(C)(O)c1cc2ccc(C#Cc3ccsc3)cc2c(=O)o1 the Potency was inconclusive [inhibitor, single point].
In the case of CC(=O)N1CCSc2ccc(S(=O)(=O)NCCc3ccc(Cl)cc3)cc21, the Potency is reported as active: 16.4 µM.
For CCOC(=O)c1ccc(-n2c(C)nc3ccc(Br)cc3c2=O)cc1, the Potency was inconclusive [inhibitor, single point].
In the case of Cc1ccc(Cc2c(-c3cccc(Cl)c3)nc3c4ccccc4ccn23)cc1, the Potency is reported as inconclusive [inhibitor, single point].
In the case of Cc1cccc(C)c1N1CCN(C(=O)Nc2ccc3c(c2)OCCO3)CC1, the Potency is reported as inconclusive [inhibitor, single point].
With Cc1cccc(NC(=O)CSc2nc3c(oc4ccccc43)c(=O)n2Cc2ccco2)c1 the Potency was active: 23.1 µM.
With CC1CCCN(CCCOc2ccccc2-c2ccccc2)C1 (stereo unspecified) the Potency was inconclusive [inhibitor, single point].
With COc1cccc(NC(=O)CN(C)C(=O)C2CC(=O)N(CCc3ccc(OC)c(OC)c3)C2)c1 (stereo unspecified) the “activity change, negative = growth inhibition” value was inactive: 1.03%.
For CC(=C/c1ccccc1)/C=N/NC(=O)c1nnn(-c2nonc2N)c1CN1CCC(C)CC1, the Potency was inconclusive [inhibitor, single point].
In the case of CCc1nc2cccnc2n1-c1ccc(CC(=O)Nc2ccccc2Cl)cc1, the Potency is reported as inconclusive [inhibitor, single point].
In the case of Brc1cccc(-c2nnc3sc(CN4CCC5(CC4)OCCO5)cn23)c1, the Potency is reported as inconclusive [inhibitor, single point].
In the case of CN(C(=O)CN1CCN(c2cc(-c3ccc(-c4ccccc4)cc3)ncn2)CC1)c1ccccc1, the Potency is reported as active: 23.1 µM.
For Cc1ccc(C)c2sc(NC(=O)c3ccc(N4CCCCC4)c([N+](=O)[O-])c3)nc12, the Potency was inconclusive [inhibitor, single point].
In the case of Cc1ccc(C(=O)NC(=S)Nc2ccc(-c3cc4ccccc4oc3=O)cc2)c(C)c1, the Potency is reported as inconclusive [inhibitor, single point].
In the case of Cc1ccc(NC(=S)Nc2cccc3cnccc23)cc1, the Potency is reported as inconclusive [inhibitor, single point].
For O=C(CN1C(=O)NC2(CCCCC2)C1=O)Nc1cccc2ncccc12, the Potency was inconclusive [inhibitor, single point].
With COc1ccccc1-c1noc(CSc2nnc(Cc3ccccc3)n2-c2ccc(C)c(C)c2)n1 the Potency was active: 16.4 µM.
With COCc1ccc(C(=O)N2CCCC(Nc3ccc4c(c3)OCCO4)C2)o1 (stereo unspecified) the “activity change, negative = growth inhibition” value was inactive: -2.26%.
With Cc1ccc(C)n1-c1nnc(N2CCC(C(=O)NCc3ccc(F)cc3)CC2)s1 the Potency was inconclusive [inhibitor, single point].
For CC12CCC3c4cc(CN5CCOCC5)c(O)cc4CCC3C1CCC2=O (stereo unspecified), the Potency was inconclusive [inhibitor, single point].
For Cc1cc(NS(=O)(=O)c2ccc3nc(-c4ccccc4)[nH]c3c2)ccc1Br, the Potency was inconclusive [inhibitor, single point].
With C[C@@H]1CCCCO[C@H](CN(C)Cc2ccc3c(c2)OCO3)[C@@H](C)CN([C@H](C)CO)C(=O)c2cc(NC(=O)c3ccccc3)ccc2O1 the Potency was active: 20.6 µM.
In the case of CCCN(CC(=O)Nc1ccccc1OC)C(=O)CCNC(=O)c1ccccc1OC, the “activity change, negative = growth inhibition” value is reported as inactive: 0.476%.
In the case of OC[C@@H]1CN(Cc2ccc(Cl)cc2)C[C@H](n2cnc3c(NCc4ccncc4)ncnc32)O1, the “activity change, negative = growth inhibition” value is reported as inactive: -15.7%.
For Cn1c(=O)c2cc(S(=O)(=O)Nc3cc(C(=O)O)cc(C(=O)O)c3)ccc2n(C)c1=O, the “activity change, negative = growth inhibition” value was inactive: -4.46%.
For CN(CC(=O)Nc1ccc(F)cc1)C(=O)c1ccccc1OCc1ccc(F)cc1, the Potency was inconclusive [inhibitor, partial curve].
For Cc1ccc(C(OC(=O)c2ccco2)C(=O)NC(C)(C)C)cc1 (stereo unspecified), the “activity change, negative = growth inhibition” value was inactive: 12.3%.
For Cc1ccc(-c2nc(C3CCCN(S(=O)(=O)c4ccc(C(F)(F)F)cc4)C3)no2)cc1 (stereo unspecified), the Potency was inconclusive [inhibitor, partial curve, poor fit].
For COc1cccc(C(=O)Nc2cc3c(cc2N2CCCC2)n(C)c(=O)n3C)c1, the Potency was inconclusive [inhibitor, single point].
With NS(=O)(=O)c1cc([N+](=O)[O-])ccc1NCc1cccnc1 the “activity change, negative = growth inhibition” value was inactive: 6.17%.
In the case of CCCCCCNCc1cccc(Br)c1, the Potency is reported as inconclusive [inhibitor, single point].
In the case of CCCOc1ccccc1N/C(=N\S(=O)(=O)c1ccc(C)cc1)Nc1nc(C)cc(C)n1, the Potency is reported as inconclusive [inhibitor, single point].
For COc1ccccc1NNC(=O)c1cccnc1Oc1ccccc1, the “activity change, negative = growth inhibition” value was inactive: 6.21%.
With CC(C)(C)c1ccc(CC(=O)N2CCC2(C)C(=O)NS(=O)(=O)c2ccccc2)cc1 (stereo unspecified) the “activity change, negative = growth inhibition” value was inactive: -3.06%.
With CCCCN1C(=S)NC[C@@H]1c1ccccc1 the “activity change, negative = growth inhibition” value was inactive: -13.7%.
For CCNC(=O)CN(c1ccc(CC)cc1)S(C)(=O)=O, the “activity change, negative = growth inhibition” value was inactive: -1.68%.
For CC1Cc2[nH]c(=S)[nH]c(=O)c2C(c2ccc(F)cc2)O1 (stereo unspecified), the “activity change, negative = growth inhibition” value was inactive: 3.58%.
In the case of Cc1c(NC(=O)c2ccccc2N(C)S(=O)(=O)c2ccccc2)c(=O)n(-c2ccccc2)n1C, the “activity change, negative = growth inhibition” value is reported as inactive: -4.93%.
For CC1(C)CC(=O)C2=C(C1)NC(SCC(=O)Nc1ccccc1)=C(C#N)C21CCCCC1, the Potency was inconclusive [inhibitor, single point].
With CN(C(=O)COC(=O)c1ccc2c(=O)n3c(nc2c1)CCC3)c1ccccc1 the “activity change, negative = growth inhibition” value was inactive: -10.1%.
With CC(=O)c1ccc(NC(=O)/C(=C\c2cccs2)NC(=O)c2ccco2)cc1 the “activity change, negative = growth inhibition” value was inactive: -5.17%.
For CN(C(=O)c1cccc(NC(=O)C2CCN(C(=O)OC(C)(C)C)CC2)c1)C1CCC1, the Potency was inconclusive [inhibitor, single point].
With CCOc1ccc(NC(=O)CN(C)C(=O)c2c(-c3ccccc3Cl)noc2C)cc1OCC the Potency was inconclusive [inhibitor, single point].
With CCOc1ccc(CN2CCN(S(=O)(=O)c3ccc(NC(C)=O)cc3)CC2)cc1 the Potency was inconclusive [inhibitor, single point].
With O=C(NNC(=O)c1ccc(O)cc1O)c1ccc(Cl)cc1 the Potency was inconclusive [inhibitor, single point].
In the case of Cn1c(=O)c2sccc2n2c(CCC(=O)N3CCN(c4ccccc4)CC3)nnc12, the Potency is reported as inconclusive [inhibitor, single point].
With COc1ccc(S(=O)(=O)NCCOc2cccc3cccnc23)cc1OC the “activity change, negative = growth inhibition” value was inactive: 3.17%.
With CCC(=O)Nc1sc2c(c1C(=O)Nc1ccccc1C)CCC(C)C2 (stereo unspecified) the Potency was inconclusive [inhibitor, single point].
With CN(C)CCNC(=S)Nc1ccccc1Cl the “activity change, negative = growth inhibition” value was inactive: 6.47%.
For COc1ccc(C(=O)NCCc2nnc3ccc(SCC(=O)NCc4ccccc4)nn23)cc1, the “activity change, negative = growth inhibition” value was inactive: -29.1%.
With CCCCNC(=S)NC(=O)c1ccccc1Br the “activity change, negative = growth inhibition” value was inactive: -17.7%.
For Cc1nc(N)nc(N)c1-c1ccc(Cl)c(Cl)c1, the Potency was active: 0.259 µM.
In the case of CSc1ccccc1C(=O)C1CCCN(C(=O)c2cccc(Cn3cccn3)c2)C1 (stereo unspecified), the Potency is reported as inconclusive [inhibitor, single point].
In the case of O=C(c1cccs1)c1coc2ccc(O)c(CN(CCO)CCO)c12, the Potency is reported as inconclusive [inhibitor, single point].
In the case of c1ccc2c(COn3nnc4ccccc43)cccc2c1, the Potency is reported as inconclusive [inhibitor, partial curve].
With CCCOc1ccccc1OCC(=O)Nc1ccc(S(=O)(=O)N2CCCC2)cc1 the Potency was inconclusive [inhibitor, single point].
For Cc1ccc(NS(=O)(=O)c2ccc(CCC(=O)NCCCOC(C)C)cc2)cc1, the Potency was inconclusive [inhibitor, partial curve, poor fit].
In the case of Cc1nonc1CN(C)C(=O)c1cc(COc2ccc(F)cc2Cl)on1, the Potency is reported as inconclusive [inhibitor, single point].
For Cc1nn(-c2ccccc2)c(N2CCCC2)c1/C=N/NC(=O)c1ccccc1O, the Potency was inconclusive [inhibitor, single point].
In the case of O=c1c2ccccc2oc2cc(-c3ccc4[nH]ccc4c3)ccc12, the Potency is reported as active: 1.84 µM.
For CC1=NNC(=O)/C1=C\c1cn(-c2ccccc2)nc1-c1ccccc1, the Potency was active: 5.8 µM.
With O=C(COc1cccc(NC(=O)c2ccco2)c1)c1ccc(F)cc1 the Potency was inconclusive [inhibitor, single point].
With OCCn1ccc(-c2ccccc2OCc2ccc(F)cc2)n1 the Potency was inconclusive [inhibitor, single point].
For CCOC(=O)C1(C)CCN1C(=O)c1ccc(C(=O)OC)cc1 (stereo unspecified), the Potency was inconclusive [inhibitor, partial curve].
For CC12CCC(C(=O)NNc3ccccc3)(C(=O)C1=O)C2(C)C (stereo unspecified), the “activity change, negative = growth inhibition” value was inactive: 1.86%.
In the case of Cc1cc2c(cc1C)C(c1ccccc1F)CC(=O)N2 (stereo unspecified), the Potency is reported as inconclusive [inhibitor, single point].
For O=C(c1ccc(Cn2c(=O)[nH]c3ccsc3c2=O)cc1)N1CCN(c2ccccc2)CC1, the Potency was inconclusive [inhibitor, partial curve].
For COc1cc(-c2cc(C(=O)Nc3cccc(C(C)=O)c3)c3ccccc3n2)cc(OC)c1OC, the Potency was active: 6.51 µM.
For CC(O)(c1ccccc1)c1nc(-c2ccc(S(C)(=O)=O)cc2)cs1 (stereo unspecified), the “activity change, negative = growth inhibition” value was inactive: -20.6%.

Source: PubChem BioAssay AID686979 (National Center for Advancing Translational Sciences (NCATS), 2013)
On the % scale 0 is the no-effect control and ±100 the full control effect; potency means the concentration at half of the fitted maximal effect; tags describe the fitted curve by direction and shape.
